Assay results as given in PubChem BioAssay AID624417 (National Center for Advancing Translational Sciences (NCATS), 2012).
The whole screen tested about 410,000 compounds, of which about 6,400 (1.6%) were called active. The inconclusive results got no clear call from the source; some entries with a clear call stand among them for comparison. Calls come from the whole dose curve; as a rule, active = well fitted inhibition curve with a large enough effect; inconclusive = small, poorly fitted or top-dose-only effect; inactive = no such curve, though single readings can be large or run the other way. No potency is given beside an inconclusive call; the fits are too rough.

biological target: Glucagon-like peptide 1 receptor (Homo sapiens) (UniProt P43220); assay: qHTS of GLP-1 Receptor Inverse Agonists (Inhibition Mode); details: HEK293 GLP-1R CRE-luciferase, luminescence, 24 h, GLP-1R form is constitutively active; series mostly up to 38.3 µM; note: nearly all actives have a fitted effect of over 55% in size
UniProt P43220, sequence (P43220 whole entry, looked up): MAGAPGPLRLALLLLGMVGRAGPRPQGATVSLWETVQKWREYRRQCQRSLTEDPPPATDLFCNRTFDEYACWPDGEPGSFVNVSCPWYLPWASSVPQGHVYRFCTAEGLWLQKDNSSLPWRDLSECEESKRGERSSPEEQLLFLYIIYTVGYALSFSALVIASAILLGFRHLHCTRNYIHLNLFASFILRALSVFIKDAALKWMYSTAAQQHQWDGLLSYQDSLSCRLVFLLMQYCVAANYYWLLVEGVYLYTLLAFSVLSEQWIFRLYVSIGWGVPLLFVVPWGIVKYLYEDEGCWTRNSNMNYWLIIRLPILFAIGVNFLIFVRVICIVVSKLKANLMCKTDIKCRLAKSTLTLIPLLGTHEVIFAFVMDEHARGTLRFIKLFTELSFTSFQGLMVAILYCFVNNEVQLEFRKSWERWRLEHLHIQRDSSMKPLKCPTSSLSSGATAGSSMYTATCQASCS
Summary of the method: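 GLP-1R inverse agonism mode: basal reporter luminescence in engineered HEK293 cells measured after one day of compound exposure at 37 deg C, with a 12 min room-temperature detection step.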
Potency is the fitted concentration of half-maximal effect; tags give direction and shape of the fitted curve.

Structure (SMILES) | Potency
COc1ccc(CN(C)C(=O)c2cc(-c3ccccc3)nc3ccc(C)cc23)c(OC)c1 | active: 5.62 µM
Clc1ccc(CN(Cc2ccccc2)C(c2cccs2)c2nnnn2C2CCCC2)cc1 (stereo unspecified) | inconclusive [inhibitor, full curve, poor fit]
C[C@]12C(=O)N(c3ccc(Cl)cc3)C(=O)N1[C@H]1c3ccccc3OC[C@@H]1[C@H]2c1ccccc1 | inconclusive [inhibitor, partial curve, poor fit]
Cc1sc2ncn(CC(=O)N(C)c3ccc(C(C)C)cc3)c(=O)c2c1S(=O)(=O)N1CCC(C)CC1 | inactive
COc1cc(C2(c3ccc(O)c(OC)c3)C(=O)Nc3c(C)cc(Br)cc32)ccc1O | inconclusive [inhibitor, partial curve, poor fit]
CC1=NN(C(=O)c2c(Br)c(C)nn2C)C(O)(C(F)(F)F)C1 (stereo unspecified) | inconclusive [inhibitor, full curve, poor fit]
CCOc1ccccc1NC(=O)N1CCC(C(=O)c2ccc(F)cc2)CC1 | inconclusive [inhibitor, partial curve, poor fit]
COc1ccc(C(C(=O)NC(C)(C)C)N(C(=O)CNC(=O)c2cccs2)c2ccc(C(C)C)cc2)cc1OC (stereo unspecified) | inconclusive [inhibitor, single point]
COC(=O)[C@@H](NC(=O)NC1CCN(Cc2ccccc2)CC1)C(C)C | inactive
CC(C)Oc1cccc(NC(=O)C2(C)CCCN2C(=O)C(C)C)c1 (stereo unspecified) | inactive
O=C(OCc1nc2ccc(Cl)cc2n1CCO)c1ccccc1C(=O)c1ccccc1 | inconclusive [inhibitor, single point]
CN1C(=O)C(CC(=O)Nc2ccc(F)cc2)N(NC(=O)c2cccc(F)c2)C1=S (stereo unspecified) | inconclusive [inhibitor, partial curve, poor fit]
CSc1cccc(NC(=O)C2CCCN(S(=O)(=O)c3cccs3)C2)c1 (stereo unspecified) | inconclusive [inhibitor, partial curve, poor fit]
Oc1ccccc1C1=Nc2ccccc2N=C(c2cccs2)C1 | inconclusive [inhibitor, partial curve, poor fit]
CCn1c(C(=O)Nc2ccc(C)cc2C)cc2sc(Cl)cc21 | inconclusive [inhibitor, partial curve]
CCOC(=O)C(=Cc1ccccc1OC)C(=O)OCC | inconclusive [inhibitor, partial curve, poor fit]
CSc1c(CC(=O)NCCCO)n(Cc2ccccc2)c2ccccc12 | inconclusive [inhibitor, single point]
Cc1ccc(-c2cccc([C@H]3[C@@H]4C=CC[C@@H](C)[C@@H]4C(=O)N3Cc3ccccc3)c2)cc1 | inconclusive [inhibitor, partial curve, poor fit]
O=C(CN1C(=O)c2cccc3cccc1c23)Nc1ccccc1Br | inactive
COc1ccc(CNC(=O)c2ccc(-c3cccnc3)c3ccoc23)cc1OC | inactive
O=C(O)/C(=C\c1c(C(=O)O)[nH]c2cc(Cl)cc(Cl)c12)c1ccccc1 | inactive

Structure (SMILES) | Potency
CC[N+]1=C(C)C(C)(C)c2cc(C)ccc21 | inconclusive [inhibitor, partial curve, poor fit]
COc1ccc(/C(C)=N/Nc2nc3ccccc3nc2C)cc1OC | inconclusive [inhibitor, single point]
Oc1ccc(/C=N/N(Cc2ccccc2)c2ccccc2)cc1 | inconclusive [inhibitor, partial curve, poor fit]
CCc1nnc(NC(=O)CSc2nnc(CNc3ccc(C)cc3)n2C)s1 | inactive
CC1(C)N=C(N)NC(Nc2ccc(Cl)cc2)=N1 | inconclusive [inhibitor, single point]
C#CCNC(=O)C[C@@H]1C[C@@]2(C(=O)OC)CCCCC=C2N(Cc2ccc(Cl)cc2Cl)C1=O | inconclusive [inhibitor, single point]
O=C(Nc1ccc(Br)cc1)Nc1ccccc1Cl | inconclusive [inhibitor, full curve, poor fit]
CCOC(=O)CSc1nc(C(C)C)nc2ccccc12 | inconclusive [inhibitor, single point]
O=S(=O)(c1ccccc1)N1CN(Cc2ccc(F)cc2)c2nc3ccccc3nc21 | inconclusive [inhibitor, full curve, poor fit]
FC(F)(F)c1cccc(-c2cc3nc(NCCCn4ccnc4)ccn3n2)c1 | inconclusive [inhibitor, single point]
Cn1c(=NC(=O)C2CCN(S(=O)(=O)c3cccs3)CC2)sc2ccccc21 | inconclusive [inhibitor, partial curve, poor fit]
CCC(C)c1ccc(NC(=O)C2CCN(c3ccc(C(F)(F)F)cn3)CC2)cc1 (stereo unspecified) | inconclusive [inhibitor, full curve]
COc1cc(/C=C/C(=O)OCC(=O)NC(=O)NC23CC4CC(CC(C4)C2)C3)ccc1OCC#N | inconclusive [inhibitor, single point]
CC(C(=O)Nc1cc([N+](=O)[O-])ccc1Cl)N1CCN(c2ccccc2O)CC1 (stereo unspecified) | inconclusive [inhibitor, single point]
O=[N+]([O-])c1ccc(COc2ccccc2/C=N/O)cc1 | inactive
Cc1nc(-c2ccccc2)sc1C(=O)NS(=O)(=O)c1ccc(CN2CCN(c3ccccc3)CC2)cc1 | inactive
COc1ccccc1NC(=S)NCc1ccccc1Cl | inconclusive [inhibitor, single point]
O=S(=O)(c1ccc(F)c(F)c1)N1CCC2(CC1)OCCO2 | inconclusive [inhibitor, single point]
CCCN(C(=O)c1ccc(OCC(C)C)cc1)c1c(N)n(Cc2ccccc2)c(=O)[nH]c1=O | inactive
CCN(CC)C(=O)CN(c1cc2c(cc1OC)oc1ccccc12)S(=O)(=O)c1ccccc1 | inconclusive [inhibitor, partial curve, poor fit]
Cc1nc(-c2c(C(F)(F)F)noc2-c2ccc(O)cc2O)cs1 | inconclusive [inhibitor, full curve, poor fit]

Structure (SMILES) | Potency
COc1ccc(Cc2nc3ccc(C(=O)NCc4cc(C)no4)cc3o2)cc1OC | inactive
Cc1cc(-c2ccc(C)c(S(=O)(=O)NCCN3CCC(C)CC3)c2)on1 | inconclusive [inhibitor, single point]
COc1ccc(CCCNC(=O)C2(C)Cc3c(-c4ccc(C(N)=O)cc4)ccnc3O2)cc1 (stereo unspecified) | inconclusive [inhibitor, partial curve, poor fit]
CC(C)c1ccc(CNc2nc(-c3ccco3)nn2S(=O)(=O)c2ccc(F)cc2)cc1 | inconclusive [inhibitor, single point]
CCN1CC(CN(C)Cc2cn(-c3ccc(C)cc3)nc2-c2ccc(F)cc2)CC1=O (stereo unspecified) | inconclusive [inhibitor, partial curve, poor fit]
O=C(COc1ccccc1C(=O)NCC1CCCO1)Nc1ccc(Br)cc1 (stereo unspecified) | inconclusive [inhibitor, partial curve, poor fit]
CC(C)(C)c1cc(C(=O)NCc2cc(F)cc3c2OCOC3)n(Cc2ccccc2)n1 | inconclusive [inhibitor, single point]
NC(=O)CC(NC(=O)c1ccc(Br)cc1)c1ccc(N2CCCCCCC2)c([N+](=O)[O-])c1 (stereo unspecified) | inconclusive [inhibitor, single point]
CC1(c2ccccc2)NC(=O)N(CC(=O)N2CCN(S(=O)(=O)c3cccc(C(F)(F)F)c3)CC2)C1=O (stereo unspecified) | inconclusive [inhibitor, partial curve, poor fit]
CCCCc1c(C)nc2nc(SCc3ccc(Cl)cc3)[nH]n2c1=O | inconclusive [inhibitor, single point]
Cc1ccc(NS(=O)(=O)c2ccc(C(=O)N3CCN(S(=O)(=O)c4ccccc4)CC3)cc2)cc1 | inconclusive [inhibitor, single point]
N#Cc1ccc(NC(=O)COCc2cc(-c3ccco3)on2)cc1 | inactive
COc1cc(S(=O)(=O)N2CCCCCC2)ccc1Cl | inconclusive [inhibitor, partial curve, poor fit]
Cc1ccc(S(=O)(=O)NCc2ccc3[nH]c(C)cc3c2)cc1 | inconclusive [inhibitor, single point]
CC(C)(C)NCC(O)COc1ccccc1C1CCCC1 (stereo unspecified) | inconclusive [inhibitor, partial curve, poor fit]
O=C(CN1C(=O)NC2(CCCC2)C1=O)Nc1ccc(C(F)(F)F)cc1 | inconclusive [inhibitor, full curve, poor fit]
Nc1nc(CN2CCN(c3ccccc3)CC2)nc(Nc2ccc(Cl)cc2)n1 | inconclusive [inhibitor, partial curve, poor fit]
COc1ccc(OC)c(NC(=O)c2cccc(N3C(=O)C4C5C=CC(C6CC56)C4C3=O)c2)c1 (stereo unspecified) | inconclusive [inhibitor, partial curve]
Cc1ccc(Nc2nc(-c3ccc(O)cc3O)cs2)nc1 | inconclusive [inhibitor, full curve, poor fit]
